Measured values as given in PubChem BioAssay AID588855 (National Center for Advancing Translational Sciences (NCATS), 2011).
Several values for one entry are separate records, joined by “and”; a condition that tells them apart may be missing. Identical values can stand only once. Screen size: about 410,000 compounds; about 5,000 (1.2%) were called active. Inconclusive means that the source gave no clear call. Such entries were picked first, then a sample of the others. Calls follow the shape of the dose curve; as a rule, active = well fitted inhibition curve with a large enough effect; inconclusive = small, poorly fitted or top-dose-only effect; inactive = no such curve, though single readings can be large or run the other way. Potencies beside an inconclusive call are fits to weak or partial responses and may not hold up.

Experiment: qHTS for Inhibitors of TGF-b; also: nearly all actives have a fitted effect of over 65% in size
Details: HepG2 CAGA-GFP TGF-b/SMAD3 reporter, GFP fluorescence, 18 h, TGF-beta stimulated, 500 pg/mL final; series mostly up to 46.1 µM
Procedure, shortened: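 First, reporter cells (HEPG2 CAGA-GFP) rested 2 h at 37 degrees C. Next, compounds were pinned in and TGF-beta added to 500 pg/mL final. After 18 h, GFP was imaged per cell and summed per well.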
Potency is read from the fitted curve at half-maximal effect; tags tell the direction and shape of the fitted curve.

| SMILES | Potency |
| --- | --- |
| COc1ccc(-c2nc3c(c(SC)n2)Cc2c(CO)cnc(C)c2O3)cc1 | inactive |
| Cc1ccccc1NC(=O)c1c(C)oc2ccc(O)c(CN3CCOCC3)c12 | inconclusive: 14.1 µM [inhibitor, partial curve, poor fit] |
| CCCCSc1nc2c(c(C(F)(F)F)c1C#N)CCC2 | inconclusive: 12.6 µM [inhibitor, partial curve, poor fit] |
| CC(=O)c1cccc(Oc2cc(NN3CCCCC3)c([N+](=O)[O-])cc2[N+](=O)[O-])c1 | inconclusive: 11.2 µM [inhibitor, partial curve, poor fit] |
| COc1ccc(C2=NN(C(=O)c3ccco3)C(c3cc4ccccc4nc3Cl)C2)cc1 (stereo unspecified) | inactive |
| COc1ccc(/C=N/NC(=O)c2cccnc2)cc1CN1CCc2cc(OC)c(OC)cc2C1C (stereo unspecified) | inconclusive: 22.4 µM [inhibitor, single point] |
| CCOc1cc(C2NC(=O)NC(C)=C2C(=O)OCc2ccccc2)ccc1O (stereo unspecified) | inconclusive: 3.55 µM [inhibitor, single point] |
| Cc1c(C(=O)Nc2ccc(OC(F)(F)F)cc2)sc2nc3n(c(=O)c12)CCC3 | inactive |
| Cc1sc2ncnc(OCc3nnc(-c4cccs4)o3)c2c1C | inconclusive: 6.31 µM [inhibitor, single point] |
| O=C(c1ccc(S(=O)(=O)N2CCCC2)cc1)N1CCCCC1 | inactive |
| O=c1c2ccccc2ncn1-c1ccc(Cl)cc1 | inconclusive: 6.31 µM [inhibitor, single point] |
| Cc1ccc(C(C(=O)NC2CCCCC2)N(Cc2cccnc2)C(=O)c2csnn2)cc1 (stereo unspecified) | inactive |
| CC(=O)Nc1ccc(OS(=O)(=O)c2ccc([N+](=O)[O-])cc2)cc1 | inconclusive: 25.1 µM [inhibitor, single point] |
| COc1cccc(CC2(CO)CCCN(Cc3cc4ccccc4[nH]3)C2)c1 (stereo unspecified) | active: 11.2 µM |
| CC(C)Oc1cc(O)c2c(=O)c(-c3ccc(O)cc3)coc2c1 | inconclusive: 11.2 µM [inhibitor, single point] |
| Cc1ccc(NC(=O)Cc2coc3ccc(C(C)C)cc23)cc1Cl | active: 11.2 µM |
| Cc1ccc(N(CC(=O)Nc2ccc(Cl)cc2)S(=O)(=O)c2cccc3nonc23)cc1 | inconclusive: 15.8 µM [inhibitor, single point] |
| Nc1nc(=S)[nH]c2c1C1(CCCC1)Cc1ccccc1-2 | inactive |
| NC(=O)c1oc2ccccc2c1NC(=O)C1CCCCC1 | inconclusive: 5.62 µM [inhibitor, single point] |
| COc1ccccc1/C=C/C(=O)OCC(=O)c1c(N)n(C)c(=O)n(C)c1=O | inactive |
| CN1C(C(=O)Nc2ccc(OC(F)(F)F)cc2)=CC(c2cccs2)=NS1(=O)=O | inconclusive: 12.6 µM [inhibitor, partial curve, poor fit] and inconclusive: 4.47 µM [inhibitor, single point] |
| CCCn1c(N)c(N(CCOC)C(=O)c2ccc(-c3ccc(Cl)cc3)o2)c(=O)[nH]c1=O | inactive |
| COc1ccc2nc(Nc3nc(-c4cc5ccccc5oc4=O)cs3)sc2c1 | inconclusive: 5.62 µM [inhibitor, single point] |
| C[C@@]12CCC=C[C@H]1[C@H](c1ccccc1Br)N(Cc1ccccc1)C2=O | active: 17.8 µM |

| SMILES | Potency |
| --- | --- |
| Cc1coc2c1C(=O)C(=O)c1c-2ccc2c(C)cccc12 | inactive |
| Cc1cc2nc(-c3ccccc3)c(Cc3cccc(F)c3)n2c(C)c1Br | inconclusive: 10 µM [inhibitor, partial curve, poor fit] |
| N=c1c2c(-c3ccccc3)c(-c3ccccc3)n(Cc3ccco3)c2ncn1CCO | inconclusive: 12.6 µM [inhibitor, single point] |
| COc1ccccc1CN1CCN(Cc2nc(-c3ccc(C)cc3)oc2C)CC1 | inconclusive: 35.5 µM [inhibitor, single point] |
| CC1(Cc2ccc(Cl)c(Cl)c2)C(=O)Nc2ccc(S(=O)(=O)NC3CCCCC3)cc21 (stereo unspecified) | active: 12.6 µM |
| COCCNC(=S)N(CCc1c(C)[nH]c2ccc(Cl)cc12)Cc1cccs1 | inconclusive: 17.8 µM [inhibitor, partial curve, poor fit] |
| CCOC(=O)c1cnc(SCc2cccc3ccccc23)nc1N | inactive |
| CCc1ccc(N2CC(C(=O)Nc3ccc(C)c(S(=O)(=O)N4CCOCC4)c3)CC2=O)cc1 (stereo unspecified) | inconclusive: 7.94 µM [inhibitor, partial curve, poor fit] |
| CS(=O)(=O)NN1C(=O)c2ccccc2NC1c1cccc2cccnc12 (stereo unspecified) | inconclusive: 35.5 µM [inhibitor, single point] |
| Cc1ccc(-c2nn(-c3ccccc3)cc2NC(=O)CCl)cc1 | inconclusive: 35.5 µM [inhibitor, single point] |
| Nc1nc(CN2CCN(c3ccccn3)CC2)nc(Nc2ccc(Cl)cc2)n1 | inactive |
| Cc1ccc(C(C)C)c(OCC(O)CN2CCc3ccccc3C2)c1 (stereo unspecified) | inconclusive: 35.5 µM [inhibitor, single point] |
| OC(CNCCC(c1ccccc1)c1ccccc1)COc1ccccc1 (stereo unspecified) | inconclusive: 25.1 µM [inhibitor, single point] |
| Cc1cccc(COc2ncnc3nc[nH]c23)c1 | inactive |
| CC(=O)c1sc(N2C(=O)c3oc4ccccc4c(=O)c3C2c2ccc(C)cc2)nc1C (stereo unspecified) | inconclusive: 22.4 µM [inhibitor, single point] |
| CCOC(=O)CC(=O)CSc1nc(C)nc2c1oc1ccccc12 | inconclusive: 20 µM [inhibitor, single point] |
| Cc1ccc(NC(=O)c2cnn3c2NC(c2ccccc2)=CC3c2ccccc2)cc1 (stereo unspecified) | inconclusive: 35.5 µM [inhibitor, single point] |
| CCN(Cc1ccccc1)C(=O)c1cnn(-c2ccc(F)cc2)c1-n1cccc1 | inactive |
| COc1cc(OC)c(OC)cc1CN1CCCC(C(=O)c2ccccc2SC)C1 (stereo unspecified) | inactive |
| CCN(CC)c1ccc(/C=C/C2=C3C=CC=CC3NC=C2)cc1 (stereo unspecified) | inactive |
| Cc1nnc(NC(=O)CSc2ncn(-c3ccccc3)n2)s1 | inconclusive: 3.16 µM [inhibitor, full curve, poor fit] |
| O=C(c1ccccc1)N1CCCCCC1 | inconclusive: 0.1 µM [inhibitor, full curve, poor fit] |
| CCOc1ccc(-c2nn(-c3ccccc3)cc2/C=C2\SC(N)=NC2=O)cc1C | inconclusive: 35.5 µM [inhibitor, single point] |
| Cc1cccc(Cc2c(C)nc3c(-c4ccccc4)c(C)[nH]n3c2=O)c1 | active: 2.51 µM |

| SMILES | Potency |
| --- | --- |
| COc1ccc(-c2nc(CN3CCN(c4ncccn4)CC3)c(C)o2)cc1C | inconclusive: 35.5 µM [inhibitor, single point] |
| Cc1cc(C)n(-c2nc(NC(C)(C)C)nc(NC(C)(C)C)n2)n1 | inactive |
| CCNC(=S)NNC(=O)c1cc(-c2cc(C)ccc2C)nc2ccccc12 | inactive |
| O=C(OCc1c(Cl)nc2sccn12)c1cc2c(s1)CCCC2 | inactive |
| C(=C\c1ccc2ccccc2n1)/c1ccccc1 | inconclusive: 7.08 µM [inhibitor, full curve] |
| CCOc1ccc(N(CC(=O)OC)S(=O)(=O)c2ccc(OC)c(OC)c2)cc1 | inactive |
| COc1ccc(CN2CCN(c3ccc(F)cc3)CC2)c(OC)c1OC | inactive |
| Oc1ccccc1C1C=C(c2ccc3c(c2)OCO3)NC(c2ccc(F)c(Br)c2)N1 (stereo unspecified) | inconclusive: 35.5 µM [inhibitor, single point] |
| Cc1cc(-n2c(C)nc3ccccc3c2=O)ccc1NC(=O)C(F)(F)F | inconclusive: 0.112 µM [inhibitor, full curve, poor fit] |
| CCn1c(COc2ccc(C)cc2)nnc1SCc1nc2ccccc2[nH]1 | inactive |
| Cc1ccc(OCC(=O)Nc2ccncc2)c(C)c1 | inconclusive: 22.4 µM [inhibitor, single point] |
| NNc1nc(C(F)(F)F)nc2ccccc12 | inactive |
| COc1ccc(S(=O)(=O)NCCSc2nnnn2-c2ccccc2)cc1 | inconclusive: 12.6 µM [inhibitor, partial curve, poor fit] |
| Cc1ccc(S(=O)(=O)N2CCOCC2)cc1C(=O)NCCN1C(=O)S/C(=C\c2ccccc2Cl)C1=O | inconclusive: 5.01 µM [inhibitor, partial curve] |
| c1ccc(C[C@H]2CNCCN2CCC23CC4CC(CC(C4)C2)C3)cc1 | inconclusive: 35.5 µM [inhibitor, single point] |
| Cc1ccccc1OCCCN1C(=O)C(=O)c2cccc(C)c21 | inconclusive: 35.5 µM [inhibitor, single point] |
| CCn1cc(C(=O)NCc2ccc(Cl)cc2)c(=O)c2cc(S(=O)(=O)N(C)C3CCCCC3)ccc21 | inconclusive: 12.6 µM [inhibitor, partial curve, poor fit] |
| COc1cccc2c1C(=O)C=C(C)C2=O | inconclusive: 35.5 µM [inhibitor, single point] |
| COc1ccc(-n2c(O)cnc2Nc2nc(C)cc(C)n2)cc1OC | inactive |
| CC(C)(C)c1ccc(OCc2nnc(-c3ccccc3)o2)cc1 | inconclusive: 22.4 µM [inhibitor, single point] |
| Cc1cccc(CCN2C(Nc3ccccc3)=NC[C@@H]2CC(C)C)c1 | active: 6.31 µM |
| O=C(CCC1N=C2c3ccccc3N=C(SCc3ccc(Cl)cc3)N2C1=O)N1CCN(c2ccccc2)CC1 (stereo unspecified) | inactive |
| CCOC(=O)Cc1cn(C(=O)OC(C)(C)C)c2ccccc12 | inconclusive: 17.8 µM [inhibitor, single point] |
